The labels stand for the following.
B1: PhoQ; a variant is named by its letters at X, in order, P23837 (parent)
chain: MKKLLRLFFPLSLRVRFLLATAAVVLVLSLAYGMVALIGYSVSFDKTTFRLLRGESNLFYTLAKWENNKLHVELPENIDKQSPTMTLIYDENGQLLWAQRDVPWLMKMIQPDWLKSNGFHEIEADVNDTSLLLSGDHSIQQQLQEVREDDDDAEMTHSVAVNVYPATSRMPKLTIVVVDTIPVELKSSYMVWSWFIYVLSANLLLVIPLLWVAAWWSLRPIEALAKEVRELEEHNRELLNPATTRELTSLVRNLNRLLKSERERYDKYRTTLTDLTHSLKTPLXXLQXXLRSLRSEKMSVSDAEPVMLEQISRISQQIGYYLHRASMRGGTLLSRELHPVAPLLDNLTSALNKVYQRKGVNISLDISPEISFVGEQNDFVEVMGNVLDNACKYCLEFVEISARQTDEHLYIVVEDDGPGIPLSKREVIFDRGQRVDTLRPGQGVGLAVAREITEQYEGKIVAGESMLGGARMEVIFGRQHSAPKDE

The results in this text go back to a collection of fitness landscapes (doi:10.1126/science.1257360).

Some of the results follow. Where only a bound is given, the exact number is not on record here.

The assay covers variants of B1. Description: enrichment ratio after two sorts for PhoP signalling (ratio (wild type AVST 3.29)); higher = more functional. Conditions: with PhoP (E. coli).
On to ATMW, for which the enrichment ratio came to 26.9.
In the case of FEYN it was at most 0.25.
In the case of AMTM it was 11.1; in that of ESFY, at most 0.25; in that of NQYY, at most 0.25.
In the case of NPYA it was at most 0.25; in that of NCSD, at most 0.25; in that of NMPV, at most 0.25.
For NNLD, the enrichment ratio was at most 0.25.
Consider NENC, for which the enrichment ratio was at most 0.25.
In the case of ITFS it was at most 0.25; in that of RVHC, at most 0.25; in that of HSQF, at most 0.25.
In the case of IVSI it was at most 0.25; in that of THNE, at most 0.25.
Consider VPLD, for which the enrichment ratio is at most 0.25.
In the case of GYNQ it was at most 0.25; in that of IYKQ, at most 0.25; in that of TIPK, at most 0.25.
In the case of NFNQ it was at most 0.25; in that of IPHV, at most 0.25; in that of FQWI, at most 0.25.
In the case of RYFN, the enrichment ratio is at most 0.25.
In the case of YFKC it was at most 0.25; in that of IYYW, at most 0.25.
In the case of TFCY it was 0.755.
On to YIYT, for which the enrichment ratio was at most 0.25.
In the case of QQHH it was at most 0.25; in that of GKHW, at most 0.25; in that of LKDL, at most 0.25.
WLIG: the enrichment ratio was at most 0.25.
In the case of DEIN it was at most 0.25; in that of VQPT, at most 0.25.
As to DSQC, the enrichment ratio was at most 0.25.
In the case of FWYP it was at most 0.25.
In the case of MWLG it was at most 0.25.
In the case of EYCN it was at most 0.25.
With IVLL, the enrichment ratio was determined as 1.17.
In the case of QTPD it was at most 0.25; in that of HYLG, at most 0.25.
In the case of TWHD it was at most 0.25; in that of YRGD, 0.618.
In the case of HKPS it was at most 0.25.
For PQRE, the enrichment ratio was at most 0.25.
In the case of YTKN it was at most 0.25; in that of STHH, at most 0.25; in that of PTIS, at most 0.25.
In the case of LRNV it was at most 0.25; in that of KYDS, at most 0.25; in that of ADKR, at most 0.25.
In the case of QWHT it was at most 0.25.
For QMCD, the enrichment ratio is at most 0.25.
For the variant FHCD, the enrichment ratio was at most 0.25.
In the case of GWIL it was at most 0.25; in that of QCPD, at most 0.25; in that of IYEK, at most 0.25.
In the case of EFWN it was at most 0.25.
In the case of VEDT it was at most 0.25; in that of KGHY, at most 0.25; in that of KVPL, at most 0.25.
On to AKRF, for which the enrichment ratio is at most 0.25.
Turning to VDVP, the enrichment ratio is at most 0.25.
In the case of HPCW it was at most 0.25; in that of MRVS, at most 0.25; in that of MRKS, at most 0.25.
In the case of LEVD it was at most 0.25; in that of AFGP, at most 0.25; in that of DAKS, at most 0.25.
In the case of WFIM it was at most 0.25; in that of WLTD, at most 0.25.
On to TSTP, for which the enrichment ratio is at most 0.25.
In the case of WIAP it was at most 0.25; in that of QSGM, 21.6; in that of LVQK, at most 0.25.
In the case of IGDE it was at most 0.25.
In the case of YTNG it was at most 0.25.
On to WFIH, for which the enrichment ratio is at most 0.25.
In the case of SESY it was 25.4; in that of IYHR, at most 0.25; in that of NPDL, at most 0.25.
In the case of QTKP it was at most 0.25.
In the case of PQND it was at most 0.25.
Consider SIYI, for which the enrichment ratio was at most 0.25.
In the case of IQIS it was at most 0.25; in that of WRTD, at most 0.25.
In the case of HQNG it was at most 0.25; in that of RQAH, at most 0.25.
In the case of DRTD it was at most 0.25; in that of KRAG, at most 0.25.
Take IPPK: the enrichment ratio was at most 0.25.
In the case of NSCR it was at most 0.25.
In the case of KRYN it was at most 0.25; in that of SCRP, at most 0.25; in that of LFAG, at most 0.25.
In the case of NAFN it was at most 0.25; in that of FHND, at most 0.25.
For YSNI, the enrichment ratio was at most 0.25.
In the case of AQRG it was at most 0.25; in that of YTQV, at most 0.25.
In the case of AFKC it was at most 0.25.
As for HNGS, the enrichment ratio was at most 0.25.
In the case of GMVD it was at most 0.25; in that of WNTF, at most 0.25; in that of FEFW, at most 0.25.
FDRT: the enrichment ratio is at most 0.25.
On to GMFC, for which the enrichment ratio is at most 0.25.
On to VEIY, for which the enrichment ratio is at most 0.25.
In the case of RSMV it was at most 0.25; in that of WPEG, at most 0.25.
In the case of PLLR it was at most 0.25; in that of SEKY, at most 0.25; in that of SMDF, at most 0.25.
In the case of WFKA it was at most 0.25; in that of VWDP, at most 0.25.
Turning to LMGQ, the enrichment ratio is at most 0.25.
As for LSWF, the enrichment ratio is at most 0.25.
As for RLGW, the enrichment ratio is at most 0.25.
In the case of KHLI it was at most 0.25; in that of TQHY, 1.07.
In the case of NHDG it was at most 0.25.
In the case of GALH it was 6.12.
On to DRVK, for which the enrichment ratio was at most 0.25.
In the case of ALGG it was at most 0.25; in that of TCRN, at most 0.25.
In the case of KEAQ it was at most 0.25; in that of WDRY, at most 0.25.
For the variant THQH, the enrichment ratio is 23.5.
In the case of EFVH it was at most 0.25; in that of DVHA, at most 0.25; in that of LGHV, at most 0.25.
Turning to HEWI, the enrichment ratio was at most 0.25.
In the case of RWDM it was at most 0.25.
In the case of FAMQ it was 45; in that of VSYA, at most 0.25.
With RCRD, the enrichment ratio is at most 0.25.
In the case of IFEL it was at most 0.25; in that of FHLE, at most 0.25.
In the case of WMRA it was at most 0.25.
In the case of VGSM it was 1.7.
CMSP: the enrichment ratio was at most 0.25.
In the case of REND it was at most 0.25; in that of GQHC, at most 0.25; in that of PAFS, at most 0.25.
In the case of PEGH it was at most 0.25; in that of MMKD, at most 0.25; in that of STFP, at most 0.25.
In the case of VNLF it was at most 0.25; in that of FKWM, at most 0.25; in that of QSCF, at most 0.25.
Turning to HDAE, the enrichment ratio is at most 0.25.
With QQTC, the enrichment ratio is at most 0.25.
In the case of NGVG it was at most 0.25; in that of LGTM, at most 0.25.
In the case of GFDQ it was at most 0.25; in that of MKQG, at most 0.25; in that of FPVN, at most 0.25.
In the case of FQCD, the enrichment ratio is at most 0.25.
In the case of HRKV it was at most 0.25.
In the case of MWSL it was at most 0.25.
Consider THGP, for which the enrichment ratio is at most 0.25.
In the case of VLMW it was at most 0.25.
In the case of LCQW it was at most 0.25.
In the case of PWNK it was at most 0.25.
As for NNDS, the enrichment ratio is at most 0.25.
In the case of AITM it was 23.3.
Consider SCWT, for which the enrichment ratio is at most 0.25.
As for TMSV, the enrichment ratio was 16.5.
In the case of TSML it was 17.8.
In the case of PNGS it was at most 0.25; in that of EPMS, at most 0.25; in that of SFWG, at most 0.25.
In the case of YSVA it was at most 0.25; in that of KNRF, at most 0.25; in that of VDRV, at most 0.25.
Regarding NKTQ, the enrichment ratio was at most 0.25.
Consider RFDT, for which the enrichment ratio is at most 0.25.
In the case of SYTM, the enrichment ratio is at most 0.25.
In the case of SPPL it was at most 0.25; in that of QPRG, at most 0.25.
On to CIKL, for which the enrichment ratio was at most 0.25.
In the case of FYSI it was at most 0.25.
In the case of PGFC it was at most 0.25.
In the case of VPKP it was at most 0.25; in that of IIPP, at most 0.25; in that of HCPT, at most 0.25.
Take DAYW: the enrichment ratio is at most 0.25.
Regarding SQSR, the enrichment ratio was at most 0.25.
With DHCS, the enrichment ratio was at most 0.25.
In the case of EPCQ, the enrichment ratio is at most 0.25.
In the case of DCTK it was at most 0.25.
In the case of ENRM it was at most 0.25; in that of VYSW, at most 0.25; in that of PINC, at most 0.25.
On to QARR, for which the enrichment ratio was at most 0.25.
In the case of FVMH it was at most 0.25.
